The record followed here is US20220403048A1, “BINDING MOLECULES TO ARGINASE II [ARG2]” (Cancer Research Technology Limited, priority 2019, published 2022).

Assay [1] deals with recombinant cynomolgus monkey trimeric ARG2 enzyme. Put plainly: Direct binding HTRF assay, cynomolgus trimeric ARG2. As to conditions: purified scFv, FIG. 1C. Background: In TR-FRET formats the signal depends on donor and acceptor labels being close together.
The target of assay [2] is T1, human ARG2 (Homo sapiens, UniProt P78540, E275H/R327K).
T1 construct: His10 (after a GGG linker) (C); made in house; host or cells: E. coli BL21 (DE3)
T1 sequence (P78540 23-354 E275H/R327K): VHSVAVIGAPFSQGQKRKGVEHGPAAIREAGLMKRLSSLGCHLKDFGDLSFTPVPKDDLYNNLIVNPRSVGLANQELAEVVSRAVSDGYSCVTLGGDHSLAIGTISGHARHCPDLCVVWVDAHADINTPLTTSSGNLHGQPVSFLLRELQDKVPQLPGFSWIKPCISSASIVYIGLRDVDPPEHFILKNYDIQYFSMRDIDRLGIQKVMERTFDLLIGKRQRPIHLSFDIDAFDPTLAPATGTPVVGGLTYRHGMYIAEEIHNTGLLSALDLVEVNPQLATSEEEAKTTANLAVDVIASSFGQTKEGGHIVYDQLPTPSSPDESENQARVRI
Put plainly: Bio-Layer Interferometry (OctetRED) binding kinetics, human ARG2. The following applies: Fab analyte, biotinylated human ARG2 on streptavidin tip, 1:1 binding fit. The text has this:
The OctetRED (Pall ForteBio) instrument was used to assess the kinetic parameters of the interactions between C0020187 and recombinantly produced human ARG2, cynomolgus ARG2 and human ARG1. The Octet biosensor uses an optical analytical technique that analyses the interference pattern of white light reflected from two surfaces: a layer of immobilised protein on the sensor tip, and an internal reference layer. Any changes in binding at the biosensor tip result in a shift in interference pattern, which can be measured in real time. Molecules associating with or dissociating from ligands at the biosensor tip shift the interference pattern and generate a response on the Octet system which is recorded by the acquisition software.
Typically, a defined concentration of the analyte species is brought into contact with the coupled ligand and any binding is detected as an increased in signal (association phase). […]
An Octet Kinetics Buffer (PBS containing 0.01% BSA and 0.002% Tween20) is typically used as the diluent buffer for the analyte samples and as the flow buffer during the dissociation phase. The experimental data is recorded over time as shift in interference pattern (nm) over time, which is directly proportional to the optical thickness at the biosensor tip, which in turn is an approximate measure of the mass of analyte bound. […]

For assay [3], the target named is T2, ARG2 (Homo sapiens, UniProt P78540).
T2 sequence (P78540 23-354): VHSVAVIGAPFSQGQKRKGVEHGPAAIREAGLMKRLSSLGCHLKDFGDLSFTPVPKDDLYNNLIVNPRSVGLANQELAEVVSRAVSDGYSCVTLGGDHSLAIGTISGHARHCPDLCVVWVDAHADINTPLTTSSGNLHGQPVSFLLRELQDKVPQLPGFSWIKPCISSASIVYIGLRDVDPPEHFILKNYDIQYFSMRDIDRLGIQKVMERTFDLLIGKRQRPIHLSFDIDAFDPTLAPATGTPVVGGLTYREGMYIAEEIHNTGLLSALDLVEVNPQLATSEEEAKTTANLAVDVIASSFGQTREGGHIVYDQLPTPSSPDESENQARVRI
Put plainly: Size-exclusion chromatography of ARG2-Fab binding stoichiometry. Also on record: human ARG2 (aa23-354); His10 (C); made in house; host or cells: E. coli BL21 (DE3). As to conditions: FIG. 23A. On the procedure: ARG2 and Fabs were analysed at concentrations of 8 μM (referring to monomers) in SEC buffer containing 25 mM tris at pH 7.4 and 150 mM NaCl. ARG2-Fab complexes were formed by mixing both ARG2 and Fabs at concentrations of 8 μM (referring to monomers) in SEC buffer and incubation on ice for 1 h. For size-exclusion chromatography, […] of sample were injected into a 100 μl loop connected to a Superose 6 Increase 10/300 GL column (GE Healthcare) which was mounted to an AKTAexpress FPLC system (GE Healthcare). The column was equilibrated in SEC buffer, and SEC was performed at a flow rate of 0.5 ml/min. Molecular-weight estimates are based on the retention volumes seen for β-amylase, bovine serum albumin and carbonic anhydrase, which were analysed on the same FPLC system under identical conditions.
In general terms: In gel filtration, larger molecules generally elute earlier.

B1: C0020187: anti-ARG2 antibody, parent lead isolation clone, VH SEQ ID NO: 12, VL SEQ ID NO: 17 (antibody, listed as Homo sapiens, V domains shown)
VH: [about 100 residues not given here]LRADLGLYMDLWGRGTLVTVSS
VL: QSVLTQPPSVSAAPGQKVTISCSGSSSNIGNHYVSWYQQLPGTAPKLLIYDNSERPSGIPDRFSGSKSGTSATLGITGLQTGDEADYYCGTWDSSLSALVFGGGTKLTVL
modifications: C0020187
For B1, the “binding to biotinylated recombinant cynomolgus trimeric ARG2 enzyme” value in assay [1] was “bound”. In assay [2], this molecule returned a ka of 69200 M⁻¹ s⁻¹ and a kd of 0.000577 s⁻¹. Moreover, the “size-exclusion peak of 1:1 molar mixture of ARG2 and Fab” value in assay [3] (8 μM each) turned out to be 150 kDa. For the same molecule, the “Fabs bound to one ARG2 trimer” value in assay [3] (from size-exclusion profile) is on record as “one fab”.
